Read counts are not given, so values of variants with three or more changes are uncertain.
B1: LINE1-mini (parent)
chain: GGCAGAGCUCAACACAGCGUGGCAAAGUGGCUGUGGCUAGACUGCC

Variants of: B1
Assay: self-cleavage, relative activity (ratio to wild type); higher = more cleavage; in vitro, sequencing; the parent is a self-cleaving ribozyme

Row | Variant | self-cleavage
1 | GGCAGACCUCAACACAGCCUGGUAAAGAGGCUGUGGCUAGACUGCC | 0.15
2 | GGCAGACCACAACACAGCGUGGCAAAGUGGCUCUGGCCAGACUGCA | 0.02
3 | GGCAGAUCUCAACACCGCGUGGCAAAGUGGCAGUUGCUAGACUGCC | 0.03
4 | GGCAGACCUCAACACAGCUUGGCAAAGUGGCUGUGACUAGACUGCC | 0.06
5 | GGCAGACCUCAACACAGCGUGGCAAAGUGUCUGUUGCUAAACUGCC | 0.1
6 | GGCAGACCUCAACACAUCGUGGCAAAGUGGCUGUGGCUUGACUGCC | 0.01
7 | GGCAGAUCUCAGCGAAACGUGCAAAAGUGGCUGUGGCUAGACAGCC | 0.1
8 | GGCAGAUCUCAACACAGCGUGGCGACAUGCCUGUGGCUAGACUGCC | 0.02
9 | GGCAGACCUCAACACAGCGUGGCAAAGUGACUGUGGCUAGACAGCC | 0.34
10 | GGCAGACCUCAACACAGCGUGGCAAAGUGUCUGCGGCAAGGCUGCC | 0.03
11 | GGCAGAUCUCCACACAUGGAGGCAAGGUUGCUGUGGCUAGACUGCC | 0.01
12 | GGCAGACCUCAACACAGCAUGGCAAAGUGGAUGUGGCUAAACUGCC | 0.02
13 | GGCAGAUCUCAACACGGCGUGGCAAAGUGUCAUUGGCUAUACUGCC | 0.04
14 | GGCAGACCUCAACACAGCGUGGCAAAGUGGCUGUGGGUAGGCUGCC | 0.02
15 | GGCAGAUCUCAACACAGCGUGGCGACGAGGAUGUGGCUAGACUGCC | 0.02
16 | GGCAGACCUCAACACAUCGAGGCAAAGUGGCUGUGGCUAGCCAGCC | 0.07
17 | GGCAGACCUCAACACAGCGUGGCAAAGUGGCAGUGGCGAGACUGCC | 0.01
18 | GGCAGACCUCAACACAGCGUGGCAAAGUGGCUGAGACUAGACUGCC | 0.11
19 | GGCAGACCUCAACACAGCGUUGCAAAGUGGCUGUGGCUAUACUGCC | 0.01
20 | GGCAGAUCUCAACACAGCGUGGCUAAGUGGCUGUGACUAGACUGCC | 0.09
21 | GGCAGAUCUCAACACAGCGUGGCAGAGUUGCUGUGGCUAGACUGCC | 0.04
22 | GGCAGAUAUCAACACAGUGUGGCAAAGUGGCUGUGGCUAGACUGCC | 0.25
23 | GGCAGAUCUCUACACACAGUGGCAAAGGCGCUGUGGCUAGACUGCC | 0

Row | Variant | self-cleavage
24 | GGCAGAUCUCUACACAGCGUGGCAAAGUGGCUGUGGCUACACUGCC | 0.01
25 | GGCAGAUAUCAACCCAGCAUGGCAAAGUUGCUGUGGAUAGACUGCC | 0.09
26 | GGCAGAUCUCAACACUGCGUGGCAAAGUGGCUGGGGCUAGACUGUC | 0.56
27 | GGCAGACCUCAACACAGCGGGGCAAAGUGGAUAUGGCUAGACUGAC | 0.01
28 | GGCAGAUCUCCAUACAGUGGGGCAAAGUGGCUGUGGCUAGGCUGCC | 0.01
29 | GGCAGACCUCAACACAGCGUAGCAAAGUGGCUGUGGCUAGACUGCA | 0.15
30 | GGCAGACCUCAACACAGCGUGGCAAAGGGGCUGUGGCUAGACUGGC | 0.02
31 | GGCAGAUCUCGACACAGCGUGGCCAAGUGGCUGUGGCCAGACUGCC | 0
32 | GGCAGAUCUCUACACAGCGUGGCAAAGUGGCUGUGGCUAGACUCCC | 0.02
33 | GGCAGAUCUCAACACAGCGUGGCAAUGUGGCUGUGGCCGGACUGCC | 0.6
34 | GGCAGACCUCAACACAGCGUGGCAAAGUGUCUGUGGCAAAAAUGCC | 0.02
35 | GGCAGACCUCAACACAGCUUGGCCGAGUGGCUGUGGCUAGACUGCC | 0.06
36 | GGCAGACCUCAACACAUAGUGGCGAAGUGGGUGUGGCUAGACUGCC | 0.06
37 | GGCAGAUAUCAACACAGCGUGGCAAAGUGGCUGUGCGUAGACUGCC | 0.07
38 | GGCAGAUCUCACCACAGCGUGGCCAAGUGGCUGUGGCUAGACUGCC | 0.01
39 | GGCAGAUCUCACCACAGGGUGGCAAAGAGGGUGUGGCUAGAGUGCC | 0
40 | GGCAGAUCUCAACCCAGAGAGGCAAAGUGGCUGUGGCUAGACUGCC | 0.1
41 | GGCAGACCUCAACACAGCGUGGCAAAGUUGCUGUGGUUAGACUGCC | 0.08
42 | GGCAGACCCCAAGACAGCGUGGCAAAGUAGCUGUGGCUAGACUGCC | 0.03
43 | GGCAGACCAGAACGCAGCCUGGCAAAGUGGCUGUGGCUAGACUGCU | 0.01
44 | GGCAGAUCUCAACACAGCGUGGCUAAGUGGGUGGGUCUAGACUGCC | 0.1
45 | GGCAGACCUCAACACACCGUGCGAAAGUGGCUGUUGCUACACUGCC | 0
46 | GGCAGAUCUCAACGCAGCGUGGCAAAGUGGCUGUGGCUAGAUUGCC | 0.08

Row | Variant | self-cleavage
47 | GGCAGACCUCAACACAGCGUAGCAAAGUGGGUGUGGCUAGACUGCC | 0.03
48 | GGCAGACCUCAACACAGCGUAGCCAAGUGGCUGUGGCUAGACUGCC | 0.2
49 | GGCAGACCUCAACACAGCGUUGCAAAGUGGCUGUGGCUGGACUGCC | 0
50 | GGCAGACCUCAACACAGCGUGGUUAAGUGGCUGUGGCUAGACUGCC | 0.27
51 | GGCAGAUCUCAUCACAGCGUGGCAAAGUGGCUGUGGCUAGAGUGCC | 0
52 | GGCAGACCGCAACCCAGCGUGGCAAAGUGGCUGUGGCAAGACUGCA | 0
53 | GGCAGACCUCAACACACCGUCGCAAGGUGCCUGUGGCUAGACUGCC | 0.08
54 | GGCAGAUCUCAGCACAGCGUGGCAAAGUGCCUGUGGCUAGACUGCC | 0
55 | GGCAGAUCUCACCACAGCGUGGCAAAGUGGCUGUGGCUGGACUGCC | 0
56 | GGCAGACCUCAACACAGCGGGGCAAAGUGGCUGAGGCUACACUGCC | 0.01
57 | GGCAGACCUCAACACAGCGUAACAAAGUGGCAGUGGCUAGACUGCU | 0.08
58 | GGCAGAUCUCAACCCAGCGUGUCAAAGUGGCUGUGGCUAAACUGCC | 0.05
59 | GGCAGACCUCAACACAGCGUGACAAAGUGGCUGUCGCUAGACUGGC | 0.04
60 | GGCAGACCUCAACACAACGUGGCAAAGUGGCUGUGGCUAGACUGCA | 0.06
61 | GGCAGAUCUCGACACAGCGUGGCAAAGUGGCUGUGGCUUGACUGCC | 0
62 | GGCAGAUCUCAACUCAGCGGGGCCAAGUGGCUGUGGCUAGGCUGCC | 0.03
63 | GGCAGAUCUCAACACAGCGUGGCAACGUGGCUGUGGCUAGACUCCC | 0.03
64 | GGCAGACCGCAUAACGGUGUGGCAAAGUGGCUGUGGCUAGACUGCC | 0
65 | GGCAGACCUCAACACAGCGUGGCAAAGUGCUUCUGGCUAGACUGCC | 0.11
66 | GGCAGAUCUCAUCACAUCGUGGCAAAGUGGCUGUGGCUAGACUGCC | 0.03
67 | GGCAGAUCUCCACACAGCGUGGGUAAGUGGCUGUGGCUAGACUGCC | 0.01
68 | GGCAGACCUCAACACAGCGUGACAAAGUGACUUUGGCUAGACUGCC | 0.05
69 | GGCAGACCUCAACACAACGUGGCAAAGUGGCUGUGGCCAGACUGCC | 0.11

Row | Variant | self-cleavage
70 | GGCAGAUAUCAACACGGCGUGGCAAAGUGGCUUUGGCUAGACAGCC | 0.13
71 | GGCAGACCUCAACACAGCGUGGCAAAGUGGGUGUGGCUAGUCUGCC | 0.07
72 | GGCAGAUCUCAACACAGCGUGGCGACGUGGCUGUGGCUAGACUGCC | 0.07
73 | GGCAGAUCUCAACCCAGCGUGGCAGAGUGGCUGUGGCUAGAGUGCC | 0.08
74 | GGCAGACCUCAACACAGCGUGGCAAAGUGGUUGUGGCUUGACUGGC | 0.02
75 | GGCAGAUCUCAACACAGCGUGGCCAAGUGGCUGUGGCGAGACUGCC | 0.01
76 | GGCAGACCACAACACAGCGUGGCAAAGUGGCUGUAGCUAGACUGCC | 0.06
77 | GGCAGAUCUCACUACAGCGUGGCAAAGUGGCUGUGGCUAGACUGUC | 0.04
78 | GGCAGACCUCAACACAGCCUGGCAAAGUGGCUUUGGUUAGACUGCC | 0.08
79 | GGCAGACCUCAACACAGCGUGGCAAACUGGCUGUGGGUAGACUGCA | 0.02
80 | GGCAGAUAUCAACACAGCGUGGCACAUUGGCUGUGGCUAGACUGCC | 0.28
81 | GGCAGAUCUCAACACAGCGUGGCAAGGUCGCUGUGGCUAGACUGCA | 0.04
82 | GGCAGAUCUCAACACGGCGUGGCAAAGGGGCUGUGGCUAGACUGCC | 0.05
83 | GGCAGAUCUCAACACUGCGUGGCAAAGUGGCUGUGGCUAGACUGCA | 0.05
84 | GGCAGAUCUCAACUCAGCGUGGCAAAGUGGCUGUGGCUAGACAGCC | 0.21
85 | GGCAGAUCUCAACUCAGCGUGGCAAAGUGGCUAUGGAUAGACUGCC | 0.01
86 | GGCAGAUCUCAACCCAGCGUGGCAUAGUGGCUGUGGCUAGACUGCC | 0.17
87 | GGCAGACCUCAACACAGCGUUGCAAAGUGGCUGUGGCUAGACUGCU | 0.08
88 | GGCAGACCUCAACACAGCGUCGCAAAGUGGCUGUGGCUAGACUGGC | 0.05
89 | GGCAGACCUCAACACAGCAUGACAGAUUGGCUGUGGCUAGACUGCC | 0.02
90 | GGCAGAUCUCAACACUGCGUGGCUAAUUGGCUGUGCCUAGGCUGCC | 0.11
91 | GGCAGAUCUCCACACAGCGUGGCUAAGUGGCUGUGGCUAGACUGCC | 0.06
92 | GGCAGACCUCAACACAGCGUGGCAAAGUGGCUGUUGCUAAACUUCC | 0.14

Row | Variant | self-cleavage
93 | GGCAGACCUCAACACAGCGUGGCAAAGUGACUGUGGCUAGAAUGCC | 0.05
94 | GGCAGACCUCAACACAGCGUGGCAAAAUGGCUGUGGCUAGACUGAA | 0.03
95 | GGCAGACCUCAACACAGCGUGGCAAAGUAGGUGUUGCAAGACUGCC | 0.02
96 | GGCAGACCUCAACACAGCGUGACAAAGUAGCUGUUGCUAGACUGCC | 0.09
97 | GGCAGAUCUCAACUCAGCGUGGCAAAGUGGCAUUGGCUAGACUGCC | 0.01
98 | GGCAGACCUCAACACAGCGGAGCAAAGUGGCUGUGGAUAUACUGCC | 0.11
99 | GGCAGAUCUCAACACAGCGUGGCAAUGUGGCUGUGGCAAGACUGCC | 0.06
100 | GGCAGACCCCAACACAGCGUGGCAAAGUGGCUGUGGCUAGAAUGCC | 0.01
101 | GGCAGACCUCAACACAGCGUGCUAAAGUGGCGGUGGCUAGACUGCC | 0.08
102 | GGCAGAUCUCAGCACAGCGUGGCAAAGUGGCUGUGACUAGACUGCC | 0.12
103 | GGCAGACCUCAACACAGCGUGGUAAAGUGGCAGUGGCUAGACUGCC | 0.03
104 | GGCAGAUCUCAUCACAGAGUGGCAAAGUGGCUGCGGCUAGACUGCC | 0.12
105 | GGCAGAUCUCUACACUGCGUGGCAAAGUGGCUGUGGCUAGACUGCC | 0.04
106 | GGCAGAUCUCGACAGAGCGUGGCAAAGUGGCUGUGGCUAGACUGCC | 0.01
107 | GGCAGAUAUCAACACAGCGUGGCAAAGUGGCUGUGGCUAGACUUCC | 0.36
108 | GGCAGAUCUCACCACAGCGUGGCAAAGUGGCUGUGGCCAGACUGCC | 0.01
109 | GGCAGAUCUCAUCACAGCGCGGCAAAGUGGCUGUGGGUAGAAUGCC | 0.01
110 | GGCAGAUCUCAACGCAGCAUGGCAAAGUGGCUGUGGCUAGACUGCC | 0.07
111 | GGCAGAUCUCAACCUGCGUUGGCAAAGUGGCUGUGGCUAGACUGCC | 0.1
112 | GGCAGACCUCAACACAGCGUGUCAAAGUGACUGUGGCUAGACUGCC | 0.06

From the RNAGym collection of RNA variant scans (doi:10.7554/elife.90254)
